# PubChem BioAssay AID1345083 (National Center for Advancing Translational Sciences (NCATS), 2018)
# Hit rate of the full screen: of about 94,000 compounds, about 6,200 (6.6%) were called active. Inconclusive means that the source gave no clear call. Such entries were picked first, then a sample of the others. The call rests on the fitted dose curve; in most records, active means well fitted inhibition curve with a large enough effect; inconclusive means small, poorly fitted or top-dose-only effect; inactive means flat fitted curve, though single readings scatter. Where the call is inconclusive, the potency comes from a doubtful curve fit.
# Assay: Cytotoxic Profiling in HEK 293 Cell Line of Diverse Libraries Using Quantitative High-Throughput Screening; further: nearly all actives have a fitted effect of over 60% in size
# Settings: HEK 293 viability, ATP luminescence (CellTiter-Glo), 48-72 h; series mostly up to 115 µM
# Method in brief: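 HEK 293 cells at 250 cells/well were exposed to compounds by pintool transfer for 48 or 72 hr at 37 degree Celsius, 5% CO2. Viability was read as ATP-coupled luminescence with CellTiter-Glo after 10 min at room temperature.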
# Potency means the concentration at half of the fitted maximal effect; tags describe the fitted curve by direction and shape.
row,SMILES,Potency
1,CC(=O)N1CCN(c2nc3c(s2)CC(C(=O)NCc2ccccc2C)CC3)CC1 (stereo unspecified),"inconclusive: 89.1 µM [inhibitor, single point]"
2,CNC(=O)c1cc(C)nc2onc(C3CCCN(C(=O)NC(C)C)C3)c12 (stereo unspecified),inactive
3,Cc1cc(C)cc(NC(=O)N2[C@@H]3CC[C@H]2CC(NC(=O)c2ccc(F)cc2)C3)c1 (stereo partly specified),active: 39.8 µM
4,Cc1ccc(C)c(S(=O)(=O)N2c3ccccc3CC2c2nc(C(C)C)no2)c1 (stereo unspecified),active: 14.1 µM
5,CC(=O)N(C1CC1)C1CCOC2(CCN(C(=O)c3nn(C)c4ccccc34)CC2)C1 (stereo unspecified),"inconclusive: 70.8 µM [inhibitor, partial curve, poor fit]"
6,Cc1ccccc1CN1CCc2nc(N3CCN(C)CC3)[nH]c(=O)c2CC1,inactive
7,O=C(NCCc1ccccc1F)c1ccc2nnc(-c3cc(C(F)(F)F)cc(C(F)(F)F)c3)n2c1,"inconclusive: 44.7 µM [inhibitor, partial curve, poor fit]"
8,O=C(Nc1ccc2c(N3CCCC3)ncnc2c1)c1ccccc1Br,active: 8.91 µM
9,O=C(NCc1cccc(C(F)(F)F)c1)c1nn(CCOc2ccccc2)c2c1CNCC2,active: 28.2 µM
10,CC1(C(=O)N2C[C@@H](Oc3ccccc3)C[C@H]2C(=O)NC2CC2)CCCCC1,inactive
11,CSc1cccc(N2C(=O)[C@@H]3C[C@@H](NC(=O)c4cccn4C)CCN3C2=O)c1,inactive
12,Oc1ccccc1CN1CCNc2cnc(Oc3ccccc3)cc2C1,active: 79.4 µM
13,CN(Cc1cccc(N2CCN(S(=O)(=O)c3c(Cl)cccc3Cl)CC2)c1)S(C)(=O)=O,"inconclusive: 39.8 µM [inhibitor, full curve]"
14,C[C@]1(CO)[C@H]2Cc3sc(NC(=O)c4ccc(F)cc4)nc3[C@@H](CC(=O)O)[C@]2(C)CC[C@H]1O,inactive
15,CC(=O)N1CCN(C(=O)C[C@@H]2c3nc(NC(=O)c4cccs4)sc3C[C@@H]3[C@](C)(CO)[C@H](O)CC[C@]32C)CC1,inactive
16,O=C(NCc1ccccc1Cl)c1ccc2nnc(C3CCCC3)n2c1,"inconclusive: 50.1 µM [inhibitor, partial curve, poor fit]"
17,CCc1ccc(NC(=O)N2C[C@@H](F)C[C@H]2C(=O)N2CCc3ccccc3C2)cc1,inactive
18,CCCc1nc(C(=O)N2CCCCC2C(=O)OCC)cs1 (stereo unspecified),inactive
19,CN(C)CCCOCC1(C)COc2ccc(C(=O)Nc3cccc(Cl)c3)cc2N1 (stereo unspecified),active: 35.5 µM
20,O=C(Cc1ccccn1)N1CCC(C(=O)N2CCC(c3nc4ncccc4[nH]3)CC2)C1 (stereo unspecified),"inconclusive: 89.1 µM [inhibitor, single point]"
21,CCc1cccc2c(C(CC(=O)NC(C)C(C)C)c3ccc(OC)c(OC)c3)c[nH]c12 (stereo unspecified),"inconclusive: 70.8 µM [inhibitor, partial curve, poor fit]"
22,NC(=O)CCn1cc(CN(CCO)Cc2ccccc2F)c2ccccc21,"inconclusive: 50.1 µM [inhibitor, partial curve, poor fit]"
23,CCCn1cc(-c2ccnc(NCc3c(F)ccc(C)c3F)n2)c(C)n1,active: 50.1 µM
24,Cn1cnc(S(=O)(=O)N2CCCC(Cc3noc(-c4ccccc4)n3)C2)c1 (stereo unspecified),"inconclusive: 79.4 µM [inhibitor, single point]"

row,SMILES,Potency
1,O=C(NC(C(=O)N1CCCCC1)C1CCN(C(=O)c2ccccc2F)CC1)c1ccccc1 (stereo unspecified),inactive
2,COCc1ncc(C)n1CCNC(=O)c1ccoc1,inactive
3,CC1CCN(C(=O)[C@@H](C)C2CC[C@@]3(C)CC[C@H](NC(=O)Cc4ccccc4)[C@@H](C)[C@@H]3[C@H]2O)CC1 (stereo partly specified),inactive
4,O=C1CCN(C2CCN(Cc3ccccc3)CC2)CCCC(C(=O)NCc2ccccc2)CCN1 (stereo unspecified),inactive
5,Cc1cc(C(=O)Nc2ccc(C(O)[C@H]3COCC(=O)N3Cc3ccc(C(F)(F)F)cc3)cc2)n(C)n1 (stereo partly specified),"inconclusive: 44.7 µM [inhibitor, partial curve, poor fit]"
6,CCOc1ccc(NC(=O)CCC2CCN(c3cc(NC4CC4)ncn3)CC2)cc1,"inconclusive: 89.1 µM [inhibitor, single point]"
7,Cc1ccsc1C(=O)N1CCC2(CC1)NCCc1c2[nH]c2ccccc12,active: 44.7 µM
8,O=[S+]1([O-])c2cnccc2OC(COc2ccccc2)CN1C1Cc2ccccc2C1 (stereo unspecified),"inconclusive: 28.2 µM [inhibitor, partial curve, poor fit]"
9,Cc1csc(NC(=O)c2nc(C(O)c3cccc(O)c3)oc2C)n1 (stereo unspecified),"inconclusive: 89.1 µM [inhibitor, partial curve, poor fit]"
10,Cn1cccc1CN1CCC2(CC1)CC(c1cccnc1)=NO2,"inconclusive: 112 µM [inhibitor, single point]"
11,CSCCNC(=O)c1nc2cccnc2n(Cc2ccccc2)c1=O,inactive
12,N#Cc1ccccc1Nc1ccnc(N2CC3CCC(C2)N3CC(F)(F)F)n1,"inconclusive: 50.1 µM [inhibitor, partial curve, poor fit]"
13,CN(C)C(=O)c1cc(-c2ccccc2F)cc2c1OCCN2Cc1cccnc1,"inconclusive: 100 µM [inhibitor, partial curve, poor fit]"
14,c1cncc(OCc2nc(C3CCNCC3)no2)c1,"inconclusive: 89.1 µM [inhibitor, single point]"
15,O=C1[C@@H]2C[C@@H](CN2C2CCC2)Oc2ccccc2N1Cc1ccc(OC(F)(F)F)cc1,active: 70.8 µM
16,CN1CCN(C(=O)C2CCCN(Cc3cccc(-c4ccsc4)c3)C2)CC1 (stereo unspecified),"inconclusive: 50.1 µM [inhibitor, partial curve, poor fit]"
17,CC(C)C(=O)NC1CCN(c2ccnc3ccnn23)C1 (stereo unspecified),"inconclusive: 112 µM [inhibitor, partial curve]"
18,COc1ccc(-c2nc(CN3CCOC(CN)C3)c(C)o2)c2ccccc12 (stereo unspecified),active: 31.6 µM
19,O=C(c1cnccn1)N1CCC(n2cc(-c3nc(-c4ccccc4)no3)nn2)CC1,"inconclusive: 56.2 µM [inhibitor, single point]"
20,O=C(Cc1ccsc1)N1CCC(n2cc(-c3nc(-c4ccccc4)no3)nn2)C1 (stereo unspecified),"inconclusive: 79.4 µM [inhibitor, partial curve, poor fit]"
21,CC(=O)N1CCC(Cc2ccc(C(=O)N3CCCCC3CN3CCCCC3)cc2)CC1 (stereo unspecified),inactive
22,O=C(NCC1CC1)c1cn(C2CN(C(=O)Nc3ccccc3)C2)nn1,inactive
23,Cc1nc(Cn2nc(C3CCCNC3)n(-c3ccccc3)c2=O)cs1 (stereo unspecified),inactive
24,O=C(NCc1ccccc1Cl)c1ccc2nnc(-c3ccoc3)n2c1,active: 112 µM

row,SMILES,Potency
1,Cc1ccc(-c2cccc(CN3CCCC(NC(=O)c4ccc(Cl)cc4)C3)c2)cc1Cl (stereo unspecified),inactive
2,Cc1cc(C)n(CCC(=O)N2CCC3(CC2)CC(N(C)Cc2ccccc2)CCO3)n1 (stereo unspecified),inactive
3,CC(C)n1cnnc1CC1CCCN(S(=O)(=O)c2ccccc2)C1 (stereo unspecified),inactive
4,COCCNC(=O)c1ccc2nnc(-c3cccnc3)n2c1,inactive
5,Cc1cnc(CCNC(=O)CC2CCCCC2)n1CC1CC1,inactive
6,CCOC(=O)c1cccc(NC(=O)N2CC[C@@H](CC(=O)NCc3ccccc3OC)[C@@H](CC)C2)c1,"inconclusive: 50.1 µM [inhibitor, partial curve, poor fit]"
7,O=C(CCc1conc1-c1cccc(F)c1)NC1CCCCCC1,"inconclusive: 89.1 µM [inhibitor, single point]"
8,CC(=O)Nc1ccc(-c2ccc(=O)n3c2[C@@H]2C[C@@H](CN(C(=O)COc4ccccc4)C2)C3)cc1,active: 39.8 µM
9,Cc1ccc(Cn2c(C3CCN(C(=O)c4ccc(C(F)(F)F)cc4)CC3)n[nH]c2=O)cc1,"inconclusive: 50.1 µM [inhibitor, partial curve, poor fit]"
10,CCOc1ccccc1CN1CCn2c(nnc2[C@@H]2C[C@@H](O)CN2Cc2cccnc2)C1,inactive
11,CN(C)c1cccc(C(=O)N2CCC(OCCOc3ccc(F)cc3)CC2)c1,"inconclusive: 35.5 µM [inhibitor, partial curve, poor fit]"
12,Cc1ccc(S(=O)(=O)N2CCCN(C(=O)C3CC3)c3ccccc32)cc1F,"inconclusive: 79.4 µM [inhibitor, single point]"
13,CCOC(=O)[C@H]1[C@@H](O)C(=O)N(Cc2ccccc2)C12CCN(C(=O)C1CCCCC1)CC2,inactive
14,CC(C)c1nccn1CCCNc1nc(-c2ccncc2)nc2c1cnn2C,"inconclusive: 44.7 µM [inhibitor, partial curve, poor fit]"
15,COc1cc(F)ccc1-c1cc2c(nc1-c1ccccc1)nc(C(=O)NCCN(C)C)n2C,active: 31.6 µM
16,COC(=O)N1CCC(C(=O)N2CCC(c3nc4ncccc4[nH]3)CC2)CC1,inactive
17,CCN1CCN(c2nc3c(s2)CN(C(=O)CCC(C)C)CC3)CC1,"inconclusive: 3.98 µM [inhibitor, full curve, poor fit]"
18,O=C(c1nc2cccnc2n(Cc2ccccc2)c1=O)N1CCN([S+](=O)([O-])c2ccccc2)CC1,"inconclusive: 79.4 µM [inhibitor, partial curve, poor fit]"
19,CC(C)Oc1ccc(CNC(=O)c2ccc(Cn3ccn4nc5c(c4c3=O)CCCC5)cc2)cc1,active: 35.5 µM
20,O=C(NCc1sc2ccccc2c1Cl)[C@H]1CCC[C@H](O)C1,inactive
21,COc1ccc(F)cc1-c1ccc(CN2CCCCC2C(=O)NCc2ccccc2)cc1 (stereo unspecified),active: 31.6 µM
22,CN(C)S(=O)(=O)N1CCCC1c1nncn1C1CCCC1 (stereo unspecified),inactive
23,O=C1Nc2ccc(-c3cccs3)cc2C(=O)N2CC[C@H](NS(=O)(=O)c3cccs3)[C@@H]12,"inconclusive: 44.7 µM [inhibitor, partial curve]"
